Measured values published in the RNAGym collection of RNA variant scans (doi:10.7554/elife.90254).
Read counts are not given, so values of variants with three or more changes are uncertain.

B1: LINE1-mini (parent)
chain: GGCAGAGCUCAACACAGCGUGGCAAAGUGGCUGUGGCUAGACUGCC

Variants of: B1
Test: self-cleavage, relative activity (ratio to wild type); higher = more cleavage; in vitro, sequencing; the parent is a self-cleaving ribozyme

Row | Variant | self-cleavage
1 | G7A U9G C15G A25C | 0.07
2 | A6U G29C G35C | 0.05
3 | G7A A12U A26U | 0.27
4 | G7A U20C A26C G40A | 0
5 | G7A A11G U32C | 0.01
6 | A6U G22U A41G | 1.22
7 | G7A C10A G29A U34A | 0.37
8 | A6U C10A A12G G19U | 0.01
9 | G7A U9G U34G | 0.03
10 | G7A C8A C13U C46A | 0.81
11 | A6U C15U C18G G33A | 0.22
12 | G7A G36A C42U | 0.24
13 | A6U G27U A39U G44U | 2.41
14 | G7A A11U C45A | 0.02
15 | A6U A11U G44A | 0.05
16 | A6U C10U G21U G35C U43G | 0
17 | G7A G22U U43A | 0.11
18 | A6U C13U G17C C18A C23U G44A C46A | 0.02
19 | A6U C8A G36C A41G | 0.36
20 | A6U G7U A16C G21C G22C U38A | 0.03
21 | G7A C13U G33A | 0.12
22 | G7A A11G A14C C42A | 0.01
23 | G7A G35A G40A G44U | 0.64
24 | G7A A12C C13G G27C G30U G36C C45U | 0.01

Row | Variant | self-cleavage
25 | A6U G22U G30A G33C A41U C45A C46A | 0.05
26 | G7A G19C G36A | 0.09
27 | A6G U28G C31G G33U U43A | 0.38
28 | G7A A11U A14U C18U G27C G29U G40U | 0.01
29 | A6G G44A C46U | 0.12
30 | A6U C13A G22C C31A C46U | 0.13
31 | G7A C8U U9C A39C | 0.96
32 | G7A U9G C18U G19U G33A G35U C46G | 0.01
33 | G7A G21U U28C | 0.05
34 | G7A A16C G19U | 0.1
35 | G7A A16C G19A | 0.08
36 | A6U G22A G36U | 0.05
37 | G7A C10U A12G G33C | 0.01
38 | A6G U9A G30C | 0.04
39 | A6U G7C A11C G27C | 0.01
40 | G7A C8A U9A G19C G22U | 0.08
41 | A6U A11G A24C C37U | 0.01
42 | G7A G19U C23G G29C C45A | 0.07
43 | G7A G19U G33U | 0.18
44 | A6U U28C C46U | 0.86
45 | A6U A25U G33C U34C | 0.02
46 | A6U C10A C23U | 0.03
47 | G7A A26C G29A G33U A41U | 0.02
48 | G7A C18U U34G U38C | 0.03

Row | Variant | self-cleavage
49 | G7A U9G C10A A14C C23A C45U | 0.02
50 | A6U G36A U38A G40C | 0.05
51 | A6U C8U A12U A26G U43C | 0
52 | A6U A11G U32C | 0
53 | A6U U28G A41U C45G | 0.02
54 | A6U U9A G17A U34A | 0.15
55 | A6U U20C G21A G27U | 0.16
56 | A6U U9A C10U A14G | 0.01
57 | G7A C18A A26G | 0.02
58 | A6U C8G A24U | 0.12
59 | A6U G27A G29U | 0.39
60 | G7A C8G G19A G30U | 0.07
61 | A6U A16G U43A | 0.03
62 | A6U G7U G21A G33C | 0.08
63 | A6U G40C C46U | 0.14
64 | G7A C10G A12C U20C A24G A25U A39G C46A | 0
65 | G7A A12C G21U U32A C37G A39U | 0
66 | G7A C15U U20A U34G | 0.52
67 | A6U G21A G29U | 1.29
68 | G7A A11G G17C C31U | 0.03
69 | G7A C23A A24G A26G G30A | 0.13
70 | A6U A11C C18A A24G | 0.01
71 | A6U C18G C46U | 0.8
72 | A6U C23U G30U | 0.11

Row | Variant | self-cleavage
73 | A6G U34G C37U C46A | 0
74 | A6U G30U G36A | 0.12
75 | A6U C18U U20G C46U | 0.11
76 | A6U A14G G21U G40U C42G | 0.01
77 | G7A G21C G22A C37U | 0.03
78 | A6U C8A G21C G35C G36C A39U | 0.11
79 | G7A G17U G19C C23G | 0.13
80 | G7A C8A U20A | 0.19
81 | A6U G7C C13A G29U U32C | 0.06
82 | G7A A25U U43C | 0.25
83 | G7A G22U G29A | 0.09
84 | A6U A24C G35U | 0.12
85 | A6U G21U C23U | 0.61
86 | A6G U20G G27A A41U | 0.29
87 | G7A G36C C45U | 0.46
88 | A6G U9A U34G | 0.03
89 | A6U U9G G27U U32A C46A | 0.03
90 | A6U A12G A16C U32C | 0
91 | A6U C13U G27A | 0.26
92 | A6U A16G C18A G36A | 0.01
93 | G7A A14C U20A | 0.14
94 | A6U A26G G40U | 0.29
95 | A6U A12U G19C | 0.29
96 | A6U A14G G21U | 0.16

Row | Variant | self-cleavage
97 | G7A C15A C23G G35A A39C G40C | 0.1
98 | A6U C23A G29U | 0.26
99 | G7A U20A A24C U32A | 0
100 | A6U G30U G35A A41G G44C | 0.08
101 | A6U U9G A25G U34A A41U G44U C45G | 0.22
102 | A6U C10U C37G U38A | 0
103 | A6U G7C A16C G22A G30C | 0.04
104 | G7A C13U G36C C46G | 0.27
105 | A6U G19A C23A | 1.03
106 | G7A C13A G30C | 0.1
107 | G7A C8U C10G G22U U28A U34G | 0.03
108 | G7A G21U C31U | 0.13
109 | A6U C18A U43A | 0.05
110 | A6G U9A G17C C31A G36U | 0.02
111 | G7A C42G C46A | 0.04
112 | A6U A25C G30U C31A | 0.13
113 | G7A U34C A39G | 0.03
114 | A6U C8U A12C C13A C15A G44A | 0.24
115 | G7A U38C G40A | 0.01
116 | G7A G22A A24U G36A | 0.41
117 | A6U C8G A41G G44A | 0.09
118 | G7A G17U G21A C23G | 0.25
119 | A6U U9A G21U | 0.05
120 | G7A C10A A14G C31U G33U C42U | 0.08

Row | Variant | self-cleavage
121 | A6U G7U U9C G40C C45A | 0.01
122 | G7A G17C C18A A25C G33C | 0.01
123 | G7A C18G C42U | 0.13
124 | A6U C23G G27U | 0.09
125 | A6U U9C G19A G29U | 0.16
126 | G7A U9C A12U G21A | 0.04
127 | G7A G19C C31U A41U | 0.05
128 | G7A A12C C42G | 0.02
129 | A6U U20G G33U | 0.01
130 | G7A A11U G19A A24C | 0.02
131 | A6U G7U A12U U28G G33A C45A | 0.24
132 | A6U G21C C23U A26G | 0.91
133 | A6G G40C C46A | 0.04
134 | A6U A26G G29C U43A | 0.31
135 | G7A G19C G22U U38A | 0.03
136 | A6U G22A G33A U38C C46A | 0.32
137 | G7A C37A G44A | 0.07
138 | G7A U9C G35C | 0.04
139 | A6U G27A C37A | 0.06
140 | G7C A11C A12G A14G A41U | 0.02
141 | A6U C13G C18U | 0.05
142 | G7A U28G C37A G40C C45U | 0.06
143 | G7A C8A C23G A24U A25U A26U | 0.04
144 | G7A G22C C42U C46U | 0.47

Row | Variant | self-cleavage
145 | A6U G35A G36A | 0.08
146 | A6U G27A G36U | 0.03
147 | G7A U9C A12C A25U A26G G29A | 0.01
148 | A6U A14G C37A | 0.03
149 | G7A A12U G44A | 0.14
150 | G7A C31U G40A C46U | 0.04
151 | G7A C8U G19U C23A | 0.08
152 | A6U C10G U20G C31U U34G C46G | 0.01
153 | G7A C15G G22A G35A C37A U38A U43C | 0.2
154 | G7A U34C C45G | 0.42
155 | G7A C13G G40C | 0.62
156 | A6U C31G G33U U43A C45U | 0.12
157 | A6U C31A G33U U38A | 0.02
158 | G7C A11C A14U A24U A26U C31G G40U | 0.01
159 | G7A U32A C45A | 0.05
160 | G7A C10U G35A C42A G44A | 0.05
161 | A6U C8G G17C A24C G40C | 0.01
162 | A6G U32C C45U | 0.04
163 | G7A A11U C13G G35A U38G | 0.01
164 | A6U A25C A39C | 0.35
165 | G7A U9C G27U G29C C46A | 0
166 | A6U A12G A14U | 0.08
167 | G7A G21U G40U | 0.33
